In PubChem BioAssay AID1240 (Sanford-Burnham Center for Chemical Genomics, 2008):
Out of some 50,000 compounds screened, about 800 (1.6%) showed an effect of 50% or more. This is one part of the list.

These compounds were tested against Bcl-2-like protein 10 (Homo sapiens) (UniProt Q9HD36) (assay: TR3 peptide-Bcl-B binding displacers, biochemical primary FP assay, phenotype converters (AID 1240;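 further: 0% = Bcl-B with tracer peptide and DMSO and 100% = tracer peptide lacking Bcl-B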)). Details: GST-Bcl-B / FITC-TR3 peptide fluorescence polarization; stronger effect = higher value; compound at 3.75 mg/L.
UniProt Q9HD36, sequence (Q9HD36 whole entry, looked up): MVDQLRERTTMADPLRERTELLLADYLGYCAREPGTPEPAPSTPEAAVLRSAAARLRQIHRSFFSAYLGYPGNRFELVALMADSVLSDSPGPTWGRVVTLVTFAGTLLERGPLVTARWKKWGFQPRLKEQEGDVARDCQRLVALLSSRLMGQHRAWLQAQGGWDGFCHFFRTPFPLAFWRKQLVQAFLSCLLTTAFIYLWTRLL

Structure (SMILES) | displacement [%]
COC(=O)c1c(NC(=O)CC2SCC(C(=O)OC)NC2=O)sc2c1CCCC2 (stereo not given) | -3.8
COc1ccc(NC(=O)C(C)Oc2ccc(Cl)cc2Cl)c(OC)c1 (stereo not given) | -4
COc1ccc(Br)cc1CNC(Cc1ccccc1)c1ccccc1 (stereo not given) | 7.5
Cc1cc(C)c2nc(Nc3nc4ccccc4c(=O)[nH]3)nc(C)c2c1 | 9.2
CCCCOC(=O)c1ccc(NC(=O)CSc2nc3ccccc3s2)cc1 | -17.7
Clc1ccc(/C=N\Nc2nc3ccccc3o2)c(Cl)c1 | 15.1
Cc1ccc(NC(=O)C2CC(=O)N(c3ccc(Cl)cc3)C2)cc1 (stereo not given) | 9
CC(C)COc1ccc(C(=O)Nc2ccc(-c3nc4ncccc4o3)cc2)cc1 | 50.1
COc1cc(OC)c(OC)cc1CN1CCN(C(=O)c2ccccc2)CC1 | -5.4
Clc1ccccc1CN1CCN(Cc2c[nH]c3ccccc23)CC1 | -3
COc1ccc(C/C(N)=N/OC(=O)CCc2ccccc2)cc1 | 4.3
Cc1ccc(OCCNC(C)(C)C)c(Cl)c1 | -2.1
Cc1n[nH]c(C)c1Sc1ccccc1N=Cc1c2ccccc2cc2ccccc12 | 13.2
O=[N+]([O-])c1ccc(-c2nc(-c3ccccc3)c(-c3cccs3)[nH]2)cc1 | 12.9
O=C(NCCOCc1ccccc1)c1ccccc1I | -14.6
COc1ccc(S(=O)(=O)N(CCc2ccccc2)CC(=O)Nc2cccc3ccccc23)cc1 | 16
Clc1ccccc1CN1CCN(C2CCCC2)CC1 | -1
COc1ccc(N(Cc2ccc(C(=O)Nc3ccc(OC)c(OC)c3)cc2)S(=O)(=O)c2ccccc2)cc1 | 15.7
O=C(O)C1C2CCC(O2)C1C(=O)NCCC1=CCCCC1 (stereo not given) | -3.9
COc1ccc(C2CC(=O)C3=C(C2)Nc2ccccc2NC3c2coc3c(Cl)cc(Cl)cc3c2=O)cc1 (stereo not given) | -7.4
COc1ccc(CC(=O)NC(Cc2ccc(OC)c(OC)c2)C(=O)O)cc1OC (stereo not given) | -9.7
CC(C)(C)Cc1ccc(C2C(=O)c3ccccc3C2=O)cc1 | -2.3

Structure (SMILES) | displacement [%]
Cc1cc(OCCCn2ccnc2)cc(C)c1Cl | 14.5
C#CCn1cc(/C=C(/C#N)C(=O)Nc2cccc(Br)c2)c2ccccc21 | -1.7
O=C(/C=C/c1ccccc1OCc1ccccc1)c1cccc(Br)c1 | -2.9
CC(C(=O)O)N1C(=O)/C(=C/c2ccc([N+](=O)[O-])cc2)SC1=S (stereo not given) | 12.2
CCOc1cc(/C=N/NC(=O)c2ccncc2)ccc1OC(=O)c1ccc([N+](=O)[O-])cc1 | 6.9
CC(=O)NS(=O)(=O)c1ccc(NC(=O)c2ccc([N+](=O)[O-])cc2[N+](=O)[O-])cc1 | 7.5
Cc1cc(Br)ccc1NC(=O)c1ccc(NC(=O)C(C)(C)C)cc1 | 8.5
COc1ccc(/C=N/N=C2\NC(=O)C(CC(=O)O)S2)c(OC)c1 (stereo not given) | -22.5
Cc1ccc(S(=O)(=O)N/N=C/c2ccc3c(c2)OCO3)cc1[N+](=O)[O-] | 12.9
COc1ccc(C(NC(=O)c2ccccc2)c2ccc3cccnc3c2O)cc1 (stereo not given) | -4.7
COc1ccc(NC(=O)/C(=C/c2ccccc2Cl)NC(=O)c2ccc(C)cc2)cc1 | -3.8
COc1ccc(/C=C/C(=O)NCCc2c[nH]c3ccccc23)cc1OC | -5
Cc1n(C)c2cccnc2[n+]1C | 1.7
CCc1c(C)c(C#N)c2nc3ccccc3n2c1Nc1ccc(OC)cc1 | 1.8
CCOC(=O)c1nnsc1NC(=O)Nc1ccccc1 | -9.5
Cc1nn(C(=O)c2ccc(Cl)cc2)c(C)c1Sc1ccc([N+](=O)[O-])cc1 | 0.4
COc1ccccc1NC(=O)CC1S/C(=N\N=C(/C)C(C)(C)C)NC1=O (stereo not given) | -2.1
COc1ccc(-c2noc(-c3ccc(I)cc3)n2)cc1 | -1.2
CS(=O)(=O)N1CCN(Cc2ccccc2Br)CC1 | 11
Cc1cc(C)cc(N2C(=O)NC(=O)/C(=C\c3cn(C)c4ccccc34)C2=O)c1 | 144
O=C(O)CCCCCN1C(=O)/C(=C\c2ccc(-c3ccc(Cl)c(Cl)c3)o2)SC1=S | 21.2
CN(C)S(=O)(=O)c1ccc(C(=O)Nc2ccc(F)cc2F)cc1 | 12.2

Structure (SMILES) | displacement [%]
COC(CNS(=O)(=O)c1ccc(Cl)cc1)c1ccccc1 (stereo not given) | 5.3
CC(C)N1C(=O)C(=Cc2c(N(C)Cc3ccccc3)nc3ccccn3c2=O)SC1=S | 27.4
CCN(Cc1ccccc1)C(=O)CN1C(=O)c2ccccc2C1=O | 13.8
COC(=O)C1=C(C)NC(=O)CC1c1ccccc1C(F)(F)F (stereo not given) | -0.9
O=C1/C(=C/c2ccc(Br)o2)SC(=S)N1Cc1ccccc1 | 8
O=C(CCCOc1ccc(Cl)cc1Cl)Nc1ccccn1 | -6.7
O=C(CCN1C(=O)c2ccccc2C1=O)NC1CCCC1 | 8.5
Cc1ccc(/C=C/C(=O)Nc2ccccc2Cl)o1 | -5.9
COc1cc(CN2CCN(C(=O)c3ccccc3)CC2)cc(OC)c1O | 1.5
COC(=O)C1=C(C)NC2=C(C(=O)CCC2)C1c1ccc(OC)cc1OC (stereo not given) | -1.7
COc1ccccc1OCCOc1cccc(/C=N/n2cnnc2)c1 | -0.2
Oc1ccccc1C(=S)N1CCCC1 | 2.9
C=C(C)C(=O)Nc1cccc(C(=O)NCC(C)C)c1 | 5.1
CC(=O)N1CCN(c2ccc(NC(=O)c3cccc(Br)c3)cc2)CC1 | 4.8
O=C1/C(=C/C=C/c2ccccc2)SC(=S)N1Cc1ccco1 | 99.7
COc1ccc(C2/C(=C(\O)c3ccc(C)cc3)C(=O)C(=O)N2CCCC(=O)O)c(OC)c1 (stereo not given) | 4.7
COc1ccc(S(=O)(=O)N2CCN(Cc3cccc4ccccc34)CC2)cc1 | -18.5
CCN1C(=O)/C(=C\c2cc(Cl)ccc2OCc2ccccc2)SC1=S | 1.6
COC(=O)c1c(NC(=O)c2ccc([N+](=O)[O-])c(C)c2)sc2c1CCCC2 | -11.6
O=C(Nc1cccc(NC(=O)c2ccc(Cl)cc2Cl)c1)c1ccc2ccccc2c1 | -9.1
CCn1c(SCC(=O)c2ccccc2)nc2sc3c(c2c1=O)CC(C)(C)OC3 | -8.9
Cc1cc(C(=O)Nc2ccc(O)c(C(=O)O)c2)c(C)o1 | -3

Structure (SMILES) | displacement [%]
COc1ccc(CN=Cc2c(O)n(-c3ccccc3Cl)c(=O)[nH]c2=O)cc1 | -8.4
O=[N+]([O-])c1ccccc1S(=O)(=O)NCc1ccc2c(c1)OCO2 | -3.4
CCC(=O)NNC(=O)COc1ccc(Cl)cc1 | -8.3
CC(C)(C)c1cc(Br)ccc1OCC(=O)Nc1cccc([N+](=O)[O-])c1 | -7.3
O=C(c1ccccc1)c1cc(Br)ccc1NC(=O)c1nc[nH]c1C(=O)O | 3.9
Cc1ccc(-c2nnc(Nc3ccc4c(c3)ncn4C)c3ccccc23)cc1 | 0.8
O=C(CCCN1C(=O)c2ccccc2C1=O)Nc1ccccc1C(=O)N1CCCC1 | 12.9
CCN(CC)CCn1c(=N)n(CCO)c2ccccc21 | -4.7
O=C1NC(=O)C(=Cc2ccccc2OCc2ccc(F)cc2)C(=O)N1 | 6.9
CC1=C(C(=O)Nc2ccccc2Cl)C(c2ccc(C(C)C)cc2)NC(=S)N1 (stereo not given) | -2.8
Cc1occc1C(=O)Nc1cccc(Cl)c1 | 0.6
COc1cc(Br)ccc1NC(=O)c1ccccc1-c1ccccc1C(=O)O | -5.9
COC(=O)C(C)N(C(=O)c1cccc2ccccc12)c1c(C)cccc1C (stereo not given) | 11.9
CC(=O)/C(CN1CCCCC1)=N/O | 5.4
CCC(=O)c1ccc(OCC(O)COc2ccc(C(=O)CC)cc2OC)c(OC)c1 | -8.3
CCOc1ccc(/C=N\NC(=O)C2CC(=O)N(c3ccc(C)cc3)C2)cc1 (stereo not given) | -2.3
CCSc1nnc(NC(=O)c2cc(-c3ccc(C)cc3)nc3ccccc23)s1 | 11.9
Cc1cc(C)n2c(SCC(C)C)nnc2n1 | 1.9
Cc1ccnc(NS(=O)(=O)c2ccc(NC(=O)c3c(-c4ccccc4)noc3C)cc2)n1 | -6.1
CCOC(=O)C(Cc1ccccc1)P(=O)(OCC)OCC (stereo not given) | -0.5
CC(C)OC(=O)c1c(-c2ccc(Br)cc2)csc1NC(=O)/C=C/C(=O)O | 15.2
Cc1occc1C(=O)NCCc1cccc(Cl)c1 | -3.3

Structure (SMILES) | displacement [%]
CCOC(=O)C1=C(C)OC(N)=C(C(=O)OCC)C1c1ccc([N+](=O)[O-])cc1 (stereo not given) | -6.8
Cc1ccccc1N(C)S(=O)(=O)c1ccc(Cl)cc1 | 32.7
CC(C)C(=O)NCCN1CCOCC1 | -0.3
COc1ccccc1NC(=O)C1=C(C)NC(=O)NC1c1ccc(C(C)C)cc1 (stereo not given) | -3.6
CCC(C(=O)Nc1ccc(C)cc1C)c1ccccc1 (stereo not given) | -1.5
COc1cccc(/C=C2\C(=O)N(c3ccc(S(N)(=O)=O)cc3)N=C2C)c1 | -3.5
O=C1C(Cl)=C(N2CCCCC2)C(=O)N1c1ccc(Cl)c(Cl)c1 | -12.3
O=C(Oc1ccc(/C=C2/SC(=S)N(c3ccccc3)C2=O)cc1)c1cccc([N+](=O)[O-])c1 | -7.6
CC1=C(C#N)C(c2ccc(OCc3ccccc3)cc2)C2=C(CC(c3ccc(Cl)cc3)CC2=O)N1 (stereo not given) | -2
CCOC(=O)c1ccc2[nH]c(C)c(CCC(C)=O)c(=O)c2c1 | -6.1
CCOc1ccc(NC(=O)/C=C/c2ccc([N+](=O)[O-])cc2)cc1 | -2.5
Nn1c(SCC(=O)c2ccc([N+](=O)[O-])cc2)nc2ccccc2c1=O | -1
CCOC(=O)c1ccc(-c2ccc(/C=C3/SC(N)=NC3=O)o2)cc1 | -27.3
O=C(Nc1ccc(Cl)cn1)c1ccccc1-c1ccccc1 | -3.7
O=C(Nc1ccccc1F)c1ccc(CSc2ccc(Cl)cc2)cc1 | 6
Cc1c(NC(=O)C(c2ccccc2)c2ccccc2)cccc1[N+](=O)[O-] | -6.3
Cc1ccc(N2C(=O)c3ccccc3C2=O)cc1C | 19.4
CCCOC(=O)c1c(N)sc2c1CCCCC2 | 4.4
Cc1cc(C)c(OCC(=O)Nc2ccc(I)cc2)c(C)c1 | 16.4
Cc1ccccc1NC(=O)C(=O)NNC(=O)c1ccccc1C | -8.5
Cc1cccc(OCC(=O)NC2C3CC4CC(C3)CC2C4)c1 (stereo not given) | 8
CC1=C(C(=O)OC2CCCCC2)C(c2ccco2)C2=C(CC(C)(C)CC2=O)N1 (stereo not given) | -4.9
